± gives the standard deviation of the averaged measurements. This is one part of the list.

The test system of the experiment is PfAP2-EXP AP2 domain (GST-tagged). Briefly: gcPBM binding intensity (ln(normalized median fluorescence intensity)); higher = stronger DNA binding. The gist of the method:
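For binding intensity, the highest Masliner-normalised natural-log median intensity across replicate spots of either probe orientation was taken. Protein bound to the array was stained with Alexa488 anti-GST antibody and scanned at 488 nm. The protein, GST-tagged P. falciparum DNA-binding domains from E. coli at about 25 μg on average, had been applied for 1 h to an Agilent 4 × 180k array of primer-extended double-stranded 36-bp intergenic genomic probes and negative controls.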
On to “TATTTTTCTTTTTTTTTTTTTTTTATATTATACGTG [XGTACX_negctrl_site363]”, for which the “gcPBM binding intensity (ln)” value stood at 8.31 ± 0.59.

With “TGGATAATGAATGATGCACACTAAAAATATTCTACA [CACACA_site5912]”, the “gcPBM binding intensity (ln)” value was 8.4 ± 0.16.

As for “CGGCACGTGATATATACACACATATAGATATATACA [CACACA_site6408]”, the “gcPBM binding intensity (ln)” value came to 8.67 ± 0.49.

For the sequence “TATTTGTAAATCGATACACACATATATCTTAATATA [CACACA_site4273]”, the “gcPBM binding intensity (ln)” value came out at 8.27 ± 0.53.

Take “CTCAATATTATTACTACACACAAATTAATATTTTCC [CACACA_site55]”: the “gcPBM binding intensity (ln)” value worked out at 8.51 ± 0.5.

As for “ATATATACTATATTTTAACACACAAAAAAAAAAAAT [CACACA_site8277]”, the “gcPBM binding intensity (ln)” value was found to be 8.54 ± 0.55.

Consider “CACCCACCCAGACACACACACACAAAAAAAAAAAGA [CACACA_site499]”, for which the “gcPBM binding intensity (ln)” value was found to be 8.62 ± 0.45.

Consider “TGTTAATTGAATGCAATCTGAATTTTTTTACATAAT [CACACA_negctrl_site1002]”, for which the “gcPBM binding intensity (ln)” value turned out to be 8.38 ± 0.3.

With “CTTTTTTCAAGACACACACACAAGAAAATATAAATA [CACACA_site7455]”, the “gcPBM binding intensity (ln)” value was 8.76 ± 0.5.

Consider “TTATTTTGTTTATTATGTACACAAAGACATAATAAT [XGTACX_site5648]”, for which the “gcPBM binding intensity (ln)” value came out at 8.51 ± 0.27.

As for “CACTTACATAATTATTGTACAGATATTATCAAATAA [XGTACX_site567]”, the “gcPBM binding intensity (ln)” value amounted to 8.47 ± 0.26.

With “ACTTATATTATAAATTGTACAAATATTATATTTGGT [XGTACX_site1424]”, the “gcPBM binding intensity (ln)” value was 8.64 ± 0.38.

As for “TTTTTTTTTTTTAAATGTACTTATCAACTTTTATAT [XGTACX_site4641]”, the “gcPBM binding intensity (ln)” value came out at 8.42 ± 0.42.

Regarding “ACGGACAATACGGAAACACACAAGTTATTTTATCAT [CACACA_site7310]”, the “gcPBM binding intensity (ln)” value is 8.59 ± 0.46.

For the sequence “TACGTAAAAATAATACGTACATATATTTATAGAAAA [XGTACX_site4959]”, the “gcPBM binding intensity (ln)” value was found to be 8.53 ± 0.23.

As for “AAAAAAAAAAGACACACACACACACGCATATACATA [CACACA_site7289]”, the “gcPBM binding intensity (ln)” value was determined as 8.62 ± 0.69.

As to “AATATATGTAAATGGACACACACATATATATATATA [CACACA_site9220]”, the “gcPBM binding intensity (ln)” value came to 10 ± 0.28.

Consider “AATAAAATAATCCAAGTGCATATGTAAAAATACATT [GTGCAC_site9576]”, for which the “gcPBM binding intensity (ln)” value amounted to 8.31 ± 0.33.

With “ACATAATATATATATTAACACACATCCTTTTATGTA [CACACA_site8317]”, the “gcPBM binding intensity (ln)” value amounted to 8.71 ± 0.28.

As for “TTCTGTGTCTAAAAATGTACGGGAATATATAAAAGT [XGTACX_site2090]”, the “gcPBM binding intensity (ln)” value was found to be 9.04 ± 0.32.

Take “TGACTTTGTTGAATTTGTCCTCTTAACTCATAATAT [GTGCAC_negctrl_site217]”: the “gcPBM binding intensity (ln)” value was 8.18 ± 0.23.

For “ATACATATATATAGGTGTACATATAATATATATATA [XGTACX_site2228]”, the “gcPBM binding intensity (ln)” value came to 9.3 ± 0.12.

Consider “AACCATGTTAACAATGCATGCATCACTATATAAACG [TGCATGCA_site421]”, for which the “gcPBM binding intensity (ln)” value was 9.79 ± 0.53.

As to “TTTAATTTTACATGAGAAACATATTACAATAAAATA [GTGCAC_negctrl_site606]”, the “gcPBM binding intensity (ln)” value was 8.29 ± 0.36.

With “ATATTTTTTGGAAAGTGTACAATATTATATATTAAA [XGTACX_site2163]”, the “gcPBM binding intensity (ln)” value was 8.38 ± 0.37.

On to “GAAATACCGGAAAGCAAACACACATTTTAAAACCAT [CACACA_site3861]”, for which the “gcPBM binding intensity (ln)” value amounted to 8.86 ± 0.57.

With “ATATAATAGAAGTGTACACACATATTTATGTCTGTA [CACACA_site3121]”, the “gcPBM binding intensity (ln)” value is 8.65 ± 0.45.

In the case of “ATGGATAACAATATGTGTACACATTTATATCTCCAC [XGTACX_site5457]”, the “gcPBM binding intensity (ln)” value is 8.8 ± 0.21.

Consider “ATACATTTTTTTTATACGCACACGTCATACTTTTAA [CACACA_site1638]”, for which the “gcPBM binding intensity (ln)” value turned out to be 8.88 ± 0.42.

As to “AAGCATGGATATTTTACACACATTTCCACGTAACAA [CACACA_site3141]”, the “gcPBM binding intensity (ln)” value turned out to be 8.47 ± 0.33.

For the sequence “CTAGCAAATACATACACACACACACCGATACATATA [CACACA_site9164]”, the “gcPBM binding intensity (ln)” value worked out at 8.62 ± 0.51.

In the case of “ACAAGACAGATATATACACACATACATACATACATA [CACACA_site7472]”, the “gcPBM binding intensity (ln)” value came to 8.73 ± 0.38.

Consider “TTTCTTAAAAAAAAAAAAAAAAGAAGATAAATAAAA [CACACA_negctrl_site289]”, for which the “gcPBM binding intensity (ln)” value worked out at 8.38 ± 0.49.

Regarding “TTTAACTTATTCAATGCACACATTTTAATAAGATAT [CACACA_site1967]”, the “gcPBM binding intensity (ln)” value was 8.21 ± 0.34.

For “ATATTTATTTATATTACACACATGTGCAATTAAACT [CACACA_site6928]”, the “gcPBM binding intensity (ln)” value came to 8.64 ± 0.22.

For “TATAAAAAATAAAAAGTTTAATGAATATTTCTTTTA [TGCATGCA_negctrl_site379]”, the “gcPBM binding intensity (ln)” value amounted to 7.75 ± 0.47.

For “TCACATGGAAAAAAGTGTACATAATTATGTATAAAT [XGTACX_site2827]”, the “gcPBM binding intensity (ln)” value was determined as 8.85 ± 0.28.

On to “ATATATATAACATATACACACGTTCATATATATATA [CACACA_site4416]”, for which the “gcPBM binding intensity (ln)” value worked out at 9.84 ± 0.14.

In the case of “TAATTTTTATTTTATTTTATTTTTTTTTTTTTTATT [CACACA_negctrl_site1671]”, the “gcPBM binding intensity (ln)” value was determined as 8.1 ± 0.4.

Take “TTACAAGTAAAAGGTACACACATTATATATACAAAT [CACACA_site8290]”: the “gcPBM binding intensity (ln)” value was 8.71 ± 0.42.

“TTATATATATTTAAATTTTATCTCACATATATATAT [TGCATGCA_negctrl_site275]”: the “gcPBM binding intensity (ln)” value was 9.255 ± 0.092.

For “TCCCTAAAAAATGATAAATGGAGACAATTCCGACAA [GTGCAC_negctrl_site209]”, the “gcPBM binding intensity (ln)” value amounted to 8.43 ± 0.29.

“AATACAATTTCTAGCACACAAAATATTATTATAATT [CACACA_site3223]”: the “gcPBM binding intensity (ln)” value came to 8.5 ± 0.35.

With “AAAAAAAAAAAAATCACACACAATATGAATTTATAG [CACACA_site601]”, the “gcPBM binding intensity (ln)” value was 8.11 ± 0.43.

The values above are taken from the supplement of paper PMC11417369.
